Test results reported in PubChem BioAssay AID1508642 (National Center for Advancing Translational Sciences (NCATS), 2021).
The campaign covered roughly 43,000 compounds. About 200 (0.47%) were called active. Another 12% or so got no clear call; they are omitted. Calls follow the shape of the dose curve; as a rule, active = well fitted cell-killing curve with a large enough effect; inconclusive = small, poorly fitted or top-dose-only effect, or effect the other way; inactive = flat fitted curve, though single readings scatter. The list shows a part of the results.

test: Cell viability qHTS assay in S16 Pmp22-F2sN cells; settings: S16 Pmp22-F2sN Schwann cells (luciferase reporters placed in the Pmp22 gene) viability, CellTiter-Glo, 24 h; series mostly up to 57.5 µM; activity change, negative = cytotoxicity: at the top concentration; also: nearly all actives have a fitted effect of over 65% in size
Summary of the method: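 CellTiter-Glo counter-screen, qHTS, 1536-well. Cells: S16(c9) Pmp22-F2sN, 500-1,000/well in DMEM + 10% FBS. Cpd 23 nL pin transfer, 24 h, 37C/5% CO2. Read: luminescence, CCD imager.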
% is scaled to controls: 0 for no effect and ±100 for the full control effect.

Row | SMILES | activity change, negative = cytotoxicity
1 | CCc1ccc(Oc2c(C(F)(F)F)oc3c(CN4CCN(CC)CC4)c(O)ccc3c2=O)cc1 | inactive: -0.485%
2 | O=c1c(N2CCN(c3cccc(Cl)c3)CC2)csc2ccccc12 | inactive: 0.0582%
3 | Cc1cc(C)cc(NC(=O)C(=O)NCCCN2CCOCC2)c1 | inactive: 17%
4 | Cc1ccc2cc3cc(C(=O)N4CCN(c5ccccc5)CC4)oc3nc2c1 | inactive: -8.61%
5 | CCc1nn(CC(=O)NCc2ccccc2Cl)c(=O)c2cc3ccccc3n12 | inactive: 0.344%
6 | COc1ccc(OCC(=O)Nc2ccc3c(c2)nc(CCNC(=O)c2ccco2)n3C)cc1 | inactive: -0.47%
7 | O=C(Nc1ccc(Br)cc1)c1ccc(F)c(S(=O)(=O)N2CCCc3ccccc32)c1 | inactive: -5.73%
8 | CC(C)Cn1c(=O)c2sccc2n2c(CCCC(=O)NCCc3ccc(Cl)cc3)nnc12 | inactive: -7.52%
9 | CCOC(=O)c1ccc(CN(Cc2ccc(Cl)cc2Cl)S(=O)(=O)c2ccc(F)c(C)c2)cc1 | inactive: 8.98%
10 | CCc1ccc2nc(N(Cc3cccnc3)C(C)=O)sc2c1 | inactive: -2.16%
11 | c1ccc(N2CCN(Cc3cccn3-c3nnc(N4CCN(C5CCCCC5)CC4)s3)CC2)cc1 | inactive: 15.6%
12 | CCc1ccccc1NS(=O)(=O)c1ccc2c(c1)CCN2C(=O)C1CC1 | inactive: -16.4%
13 | CCc1ccc(-c2nn(CC(=O)NC3CCCCC3)c3c2cnc2ccc(C)cc23)cc1 | inactive: 1.02%
14 | O=C(CN1CCN(Cc2cccc(Cl)c2)C1=O)NCc1ccc(F)cc1 | inactive: 12.6%
15 | CCN(c1ccccc1C)S(=O)(=O)c1ccc(N2CCCCS2(=O)=O)cc1 | inactive: -12.7%
16 | COc1ccc(C2CC(=O)N(Cc3ccc(F)cc3)c3ccccc3S2)cc1OC (stereo unspecified) | inactive: 3.14%
17 | COc1ccc(OC)c2sc(N3CCN(C(=O)c4ccc5c(c4)CCCC5)CC3)nc12 | inactive: -19.7%
18 | CCC1CCc2nc3sc(C(=O)Nc4ccc(C)cc4)c(N)c3cc2C1 (stereo unspecified) | inactive: 3.27%
19 | COc1ccccc1C(=O)NCCn1cc(SCc2ccc(C)cc2)c2ccccc21 | inactive: 2.84%
20 | Cc1nn(-c2ccccc2)c(-n2cccc2)c1C(=O)NCCc1ccc(Cl)cc1 | inactive: -1.93%
21 | Cn1c(=O)c2cc(C(=O)NCCCN3CCN(c4cccc(Cl)c4)CC3)sc2c2ccccc21 | inactive: -1.19%
22 | CCOc1ccc(CCNC(=O)c2nn(-c3ccc(OC)c(Cl)c3)c(=O)c3c2c2ccccc2n3C)cc1OCC | inactive: 10.9%
23 | COc1ccc(-c2cc3ccc(O)c(CN4CCC(C)CC4)c3oc2=O)cc1 | inactive: 9.1%
24 | O=C(Nc1ccc2oc(-c3cccnc3)nc2c1)c1ccc(-c2ccccc2OC(F)(F)F)o1 | inactive: 28.4%
25 | COc1ccc(-n2nc(C(=O)Nc3cc(OC)c(OC)c(OC)c3)c(=O)n(C)c2=O)cc1 | inactive: -27.1%
26 | COc1ccc(-n2nc(C(=O)N3CCN(c4ccc(F)cc4)CC3)c3c4ccccc4n(C)c3c2=O)cc1 | inactive: 9.54%
